{
  "source": "paper PMC4336329",
  "about": "(PLoS ONE, 2015)",
  "note": "Screen size: about 310,000 compounds; about 2,200 (0.71%) showed an effect of 50% or more. The effect is printed as a negative number. The list shows a part of the results.",
  "data": [
    {"target": "human ether-à-go-go-related gene (hERG) potassium channel (human, UniProt Q12809)", "sequence (Q12809 whole entry, looked up)": "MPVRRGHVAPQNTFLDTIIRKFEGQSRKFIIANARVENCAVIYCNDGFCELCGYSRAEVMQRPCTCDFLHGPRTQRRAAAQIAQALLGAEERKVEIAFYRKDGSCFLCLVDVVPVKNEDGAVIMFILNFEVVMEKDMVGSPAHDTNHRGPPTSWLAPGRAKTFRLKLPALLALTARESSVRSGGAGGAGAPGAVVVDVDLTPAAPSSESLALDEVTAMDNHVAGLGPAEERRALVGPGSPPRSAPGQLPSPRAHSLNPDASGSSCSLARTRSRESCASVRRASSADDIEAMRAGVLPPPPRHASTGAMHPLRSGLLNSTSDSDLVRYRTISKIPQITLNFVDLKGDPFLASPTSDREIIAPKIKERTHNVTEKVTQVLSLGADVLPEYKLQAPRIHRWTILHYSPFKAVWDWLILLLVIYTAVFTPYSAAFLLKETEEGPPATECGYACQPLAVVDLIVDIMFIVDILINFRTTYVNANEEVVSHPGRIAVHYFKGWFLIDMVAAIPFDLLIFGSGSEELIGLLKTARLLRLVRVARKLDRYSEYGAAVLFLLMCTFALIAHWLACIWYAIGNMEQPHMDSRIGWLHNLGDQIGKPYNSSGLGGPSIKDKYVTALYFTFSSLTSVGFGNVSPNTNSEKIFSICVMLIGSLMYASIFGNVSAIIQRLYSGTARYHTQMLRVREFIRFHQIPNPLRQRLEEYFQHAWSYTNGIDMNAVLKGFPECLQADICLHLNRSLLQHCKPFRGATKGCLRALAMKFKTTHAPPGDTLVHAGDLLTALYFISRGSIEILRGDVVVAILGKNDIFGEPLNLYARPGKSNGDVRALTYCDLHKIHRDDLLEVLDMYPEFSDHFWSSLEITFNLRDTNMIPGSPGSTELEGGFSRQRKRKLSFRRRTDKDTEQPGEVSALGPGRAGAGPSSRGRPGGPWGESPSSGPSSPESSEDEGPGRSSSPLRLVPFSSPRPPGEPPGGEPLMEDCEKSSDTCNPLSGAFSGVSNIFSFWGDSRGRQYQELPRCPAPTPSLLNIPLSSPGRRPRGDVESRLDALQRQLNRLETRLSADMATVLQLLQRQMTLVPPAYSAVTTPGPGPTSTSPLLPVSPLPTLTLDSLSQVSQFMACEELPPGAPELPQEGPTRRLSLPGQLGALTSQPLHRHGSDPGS", "assay": "primary screen, population patch clamp on CHO cells stably expressing hERG", "units": {"hERG current change (%, negative = inhibition) at 1uM": "%"}, "values": [
      {"smiles": "CCCC(=O)n1nc(NCc2ccc(OC)cc2)nc1NCc1ccc(OC)cc1", "hERG current change (%, negative = inhibition) at 1uM": 11.3},
      {"smiles": "Cc1cc(C)nc(N2CCCC(C(=O)NCCc3ccccc3F)C2)n1", "note": "(stereo not shown)", "hERG current change (%, negative = inhibition) at 1uM": 16.9},
      {"smiles": "CC(CN(C)Cc1nc(Cc2cccc(C(F)(F)F)c2)no1)CN1CCCC1", "note": "(stereo not shown)", "hERG current change (%, negative = inhibition) at 1uM": -28.4},
      {"smiles": "CCOc1ccccc1CN1CCNC(=O)C1CC(=O)N(C)CCc1cnn(C)c1", "note": "(stereo not shown)", "hERG current change (%, negative = inhibition) at 1uM": -7.03},
      {"smiles": "C=CCOc1nc2c(c(=O)n(C)c(=O)n2C)n1Cc1c(Cl)cccc1Cl", "hERG current change (%, negative = inhibition) at 1uM": 5.73},
      {"smiles": "Cn1nccc1C(=O)Nc1ccccc1C(=O)O", "hERG current change (%, negative = inhibition) at 1uM": 9.76},
      {"smiles": "CC(=O)c1ccc(NC(=O)COC(=O)c2nc(Cl)ccc2Cl)cc1", "hERG current change (%, negative = inhibition) at 1uM": 14.4},
      {"smiles": "Cc1ccc(N(CC(=O)NC2CCCC2)C(=O)CCCC(=O)Nc2ccccn2)cc1C", "hERG current change (%, negative = inhibition) at 1uM": 13.5},
      {"smiles": "COc1ccc(OCC(=O)OCC(=O)NCc2ccco2)cc1", "hERG current change (%, negative = inhibition) at 1uM": -2.31},
      {"smiles": "Cc1ccc(NC(=S)N2CCOCC2)cc1", "hERG current change (%, negative = inhibition) at 1uM": -6.23},
      {"smiles": "Cc1ccc(C(=O)N(CC(=O)NC2CCCC2)c2ccc3c(c2)OCCO3)s1", "hERG current change (%, negative = inhibition) at 1uM": 3.03},
      {"smiles": "O=C(NCc1ccco1)C1OCCc2ccccc21", "note": "(stereo not shown)", "hERG current change (%, negative = inhibition) at 1uM": 10.4},
      {"smiles": "Cc1cc(SCC(=O)N/N=C/c2ccc(O)cc2O)c(C)cc1Br", "hERG current change (%, negative = inhibition) at 1uM": 8.67},
      {"smiles": "COc1ccccc1OCC#CCN1CCOCC1.O=C(O)C(=O)O", "hERG current change (%, negative = inhibition) at 1uM": 11.5},
      {"smiles": "COc1ccc(C2CC(=O)N3C(=C2C#N)SCC3(O)c2ccccc2)cc1", "note": "(stereo not shown)", "hERG current change (%, negative = inhibition) at 1uM": -3.14},
      {"smiles": "CCOC(=O)C1=C(c2ccccc2)NC(=O)NC1c1ccc(O)c(Cl)c1", "note": "(stereo not shown)", "hERG current change (%, negative = inhibition) at 1uM": 15.3},
      {"smiles": "Cc1csc2nc(CNC(=O)c3ccco3)cn12", "hERG current change (%, negative = inhibition) at 1uM": 19.7},
      {"smiles": "CN(C)c1ccc(CNC(=O)CN(C)S(=O)(=O)c2ccc3c(c2)c(=O)n(C)c(=O)n3C)cc1", "hERG current change (%, negative = inhibition) at 1uM": -3.06},
      {"smiles": "Cc1ccc(S(=O)(=O)NCCc2ccncc2)cc1", "hERG current change (%, negative = inhibition) at 1uM": 7.04},
      {"smiles": "CN1CCN(C(=S)NC(=O)c2cccc([N+](=O)[O-])c2)CC1", "hERG current change (%, negative = inhibition) at 1uM": 22.3},
      {"smiles": "CN(C(=O)COc1cc(=O)n(C)c2ccccc12)c1cccc(Cl)c1", "hERG current change (%, negative = inhibition) at 1uM": -7.39},
      {"smiles": "O=C(O)c1ccccc1SCc1cn2ccccc2n1", "hERG current change (%, negative = inhibition) at 1uM": 8.62},
      {"smiles": "COc1ccc(-c2nc(N3CCCCCC3)sc2C(=O)c2ccccc2)cc1", "hERG current change (%, negative = inhibition) at 1uM": 5.07},
      {"smiles": "COC(=O)c1sccc1NC(=O)c1ccoc1C", "hERG current change (%, negative = inhibition) at 1uM": 12.6},
      {"smiles": "N#Cc1ccccc1NC(=O)c1ccccc1OCC(=O)Nc1ccc2c(c1)oc1ccccc12", "hERG current change (%, negative = inhibition) at 1uM": 18.5}
    ]}
  ]
}
